Laboratory results reported in article PMC4336329 (PLoS ONE, 2015).
Among all 310,000 compounds or so, about 2,200 (0.71%) showed an effect of 50% or more. Effects have a minus sign here. The list shows a part of the results.

target: human ether-à-go-go-related gene (hERG) potassium channel (human, UniProt Q12809); test: primary screen, population patch clamp on CHO cells stably expressing hERG
Sequence (Q12809 whole entry, looked up): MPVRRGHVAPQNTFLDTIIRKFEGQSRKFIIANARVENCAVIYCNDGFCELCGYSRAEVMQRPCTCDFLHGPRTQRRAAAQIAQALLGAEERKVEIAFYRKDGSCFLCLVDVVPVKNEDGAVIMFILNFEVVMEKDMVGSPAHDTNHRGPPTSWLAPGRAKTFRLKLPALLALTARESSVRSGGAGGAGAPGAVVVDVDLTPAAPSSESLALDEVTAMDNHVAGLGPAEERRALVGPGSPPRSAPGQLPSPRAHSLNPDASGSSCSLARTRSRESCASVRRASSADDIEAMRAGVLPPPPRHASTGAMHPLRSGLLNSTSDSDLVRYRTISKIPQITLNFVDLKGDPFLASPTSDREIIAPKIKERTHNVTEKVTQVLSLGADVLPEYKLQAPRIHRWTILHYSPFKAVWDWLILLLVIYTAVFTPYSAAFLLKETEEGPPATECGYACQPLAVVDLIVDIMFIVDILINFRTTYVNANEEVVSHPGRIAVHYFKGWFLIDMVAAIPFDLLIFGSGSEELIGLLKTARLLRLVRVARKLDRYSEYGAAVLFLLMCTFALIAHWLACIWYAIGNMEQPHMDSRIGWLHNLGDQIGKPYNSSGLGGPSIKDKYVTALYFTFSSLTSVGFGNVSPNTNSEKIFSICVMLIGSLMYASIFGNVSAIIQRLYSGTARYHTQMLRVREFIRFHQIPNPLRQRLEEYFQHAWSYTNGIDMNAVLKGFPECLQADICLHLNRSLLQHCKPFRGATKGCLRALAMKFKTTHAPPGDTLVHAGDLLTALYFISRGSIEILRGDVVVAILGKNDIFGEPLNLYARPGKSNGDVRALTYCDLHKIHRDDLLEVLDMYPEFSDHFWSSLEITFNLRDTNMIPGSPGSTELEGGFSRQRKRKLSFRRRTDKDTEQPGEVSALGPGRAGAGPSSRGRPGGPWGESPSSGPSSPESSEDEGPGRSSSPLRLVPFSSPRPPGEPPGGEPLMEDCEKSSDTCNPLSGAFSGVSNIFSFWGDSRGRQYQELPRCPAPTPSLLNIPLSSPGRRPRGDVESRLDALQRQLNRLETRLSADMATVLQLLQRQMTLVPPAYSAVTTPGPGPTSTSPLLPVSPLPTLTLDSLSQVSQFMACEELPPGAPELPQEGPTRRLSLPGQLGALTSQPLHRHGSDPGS

Row | Structure (SMILES) | hERG current change (%, negative = inhibition) at 1uM
1 | Clc1ccccc1-c1nnc(-c2cccs2)o1 | 7.21%
2 | COc1ccc(C(=O)Nc2nnc(S(=O)(=O)N(C)Cc3ccccc3)s2)cc1 | 8.03%
3 | Cl.O=C(CC(Nc1ccccc1)c1ccc(F)cc1)c1ccccc1 (centres unmarked) | 12.2%
4 | CC(C)OCCCn1c(SCC(=O)N2CCc3ccccc32)nc2ccccc2c1=O | 11.1%
5 | CC(C)c1ccc(S(=O)(=O)N2CCN(C(=O)c3ccco3)CC2)cc1 | 0.807%
6 | Cc1ccccc1NC(=O)Cn1cnc2c(oc3nc4c(cc32)COC(C)(C)C4)c1=O | 7.11%
7 | CCC(C)(C)NC(=O)C(c1ccc(OC)cc1)N(C(=O)CCC(=O)Nc1cc(C)on1)c1ccc(OC)cc1OC (centres unmarked) | 3.69%
8 | Cc1cc(Br)ccc1NC(=O)CN1C(=S)NC(C)(C)CC1C (centres unmarked) | 11%
9 | Cl.N=C1C(c2nc(-c3ccc(Cl)cc3)cs2)=C(O)CN1CCCN1CCOCC1 | -12.3%
10 | CCCCN(C(=O)/C=C/c1ccc(OC)cc1)C1CCS(=O)(=O)C1 (centres unmarked) | -7.27%
11 | CCCNC(=O)N1CCC(C(=O)c2cccc(F)c2)CC1 | -5.73%
12 | CNC(=O)C12N=CNN=C1N(C)C(=O)N2C (centres unmarked) | 8.87%
13 | COc1cc(C(=O)NC23CC4CC(CC(C4)C2)C3)cc(OC)c1OC | 12.1%
14 | Cc1ccccc1-n1nc2c(c1NC(=O)CCCl)CSC2 | 13.3%
15 | CC(=O)N1CCOc2ccc(S(=O)(=O)N(C)c3ccc(C)cc3)cc21 | 12.4%
16 | CC1CCN(C(=O)CSc2nnc(Cc3cccn3C)n2CCc2ccccc2)CC1 | 3.61%
17 | O=C(Nc1ccc2nc3n(c(=O)c2c1)CCCC3)c1ccccc1F | -3.6%
18 | Cc1ccc(NC(=O)CN2C(=O)S/C(=C\c3cccn3-c3cccc(C(=O)O)c3)C2=O)c(C)c1 | 13.6%
19 | Nc1nc(SCc2ccc3c(c2)OCO3)n[nH]1 | 9.27%
20 | Fc1ccc(-c2nc3ccncc3[nH]2)cc1 | 13.1%
21 | O=C(COc1cccnc1[N+](=O)[O-])NCCc1ccc(Cl)cc1Cl | -1.88%
22 | O=C(Nc1cccc(S(=O)(=O)N2CCCCC2)c1)c1ccc2c(=O)n3c(nc2c1)CCCCC3 | -7.43%
23 | COc1ccc(NC(=S)NCCNC(C)=O)cc1 | 12.4%

Row | Structure (SMILES) | hERG current change (%, negative = inhibition) at 1uM
24 | CCOC(=O)CSCc1csc(CC(=O)Nc2ccccc2C)n1 | 16.9%
25 | O=C(O)C1Cc2[nH]cnc2C(c2ccc(F)cc2)N1 (centres unmarked) | 11.3%
26 | CC(C)Cc1ccc(CN2CCC(n3nccc3NC(=O)C3CCCC3)CC2)cc1 | -16.9%
27 | CCCCn1c(N)c(N(CC(C)C)C(=O)CC2CCCCC2)c(=O)[nH]c1=O | 3.59%
28 | FC(F)Oc1ccc(NC(=S)NCc2nc3ccccc3[nH]2)cc1 | -46.4%
29 | Fc1ccc(Oc2nnnn2-c2ccccc2)cc1 | 23.2%
30 | CN1CC2([N+](=O)[O-])CC=C(OCCO)C([N+](=O)[O-])(C1)C2 (centres unmarked) | 13.3%
31 | CN(C)CCCNC(=O)C1CCNCC1 | 13.9%
32 | Cc1nnc(SCc2ccccc2)n(N)c1=O | 3.36%
33 | O=C(COC(=O)c1ccccc1)Nc1cccc(S(=O)(=O)N2CCOCC2)c1 | 2.97%
34 | Cc1ccc(N2C(=O)NC(=O)/C(=C\c3cccn3C(C)(C)C)C2=O)cc1 | 17.8%
35 | Cc1cccc(N(CC(=O)NCCSCc2ccccc2)S(C)(=O)=O)c1 | 16.4%
36 | Cc1occc1C(=O)N/N=C/c1ccc2c(c1)OCO2 | 11%
37 | Cc1ccccc1C(=O)NNC(=S)NC(=O)c1ccc(Cl)cc1Cl | 11%
38 | COC(=O)c1sccc1N/C=C(\C#N)S(=O)(=O)C(C)(C)C | 19.6%
39 | CSc1ccccc1NC(=O)CN(C)C(=O)Cn1c(=O)oc2ccccc21 | 13.8%
40 | CN(C(=O)COC(=O)c1ccc(=O)n(Cc2ccccc2)n1)C1CCCCC1 | 10.8%
41 | COc1ccc(-c2c(C(F)(F)F)nn(C)c2NC(=O)CSCC(=O)O)cc1 | 13.4%
42 | COc1cc(-c2nc(-c3ccc(NC(=O)c4ccc(Br)o4)cc3)no2)cc(OC)c1OC | 7.49%
43 | COc1ccc(C(CC(=O)c2ccccc2)CC(=O)c2ccccc2)cc1OC | -10%
44 | C=CCc1ccccc1OCC(O)CN1CCN(c2ccccc2OC)CC1.Cl (centres unmarked) | -52.3%
45 | Cc1cc(N2CCN(C)CC2)nc2ccc(NC(=S)NCc3cccs3)cc12 | -10%
46 | O=C(c1ccc(Cl)c([N+](=O)[O-])c1)N1CCN(c2ccccc2)CC1 | 5.06%

Row | Structure (SMILES) | hERG current change (%, negative = inhibition) at 1uM
47 | Cc1cc(C)c2nc(N(CCN(C)C)C(=O)c3ccc4ccccc4c3)sc2c1.Cl | 13.5%
48 | COc1ccc(C)cc1NC(=O)NNC(=O)c1ccoc1C | 11.1%
49 | COCCn1nnnc1C(c1cccs1)N1CCN2CCCC2C1.Cl (centres unmarked) | 13.8%
50 | Cc1ccc(C)c(N(C)C(=O)c2ccc3c(=O)n4c(nc3c2)CCCCC4)c1 | 13.9%
51 | Cc1sc2ccccc2[n+]1CCC(C)S(=O)(=O)[O-] (centres unmarked) | -8.74%
52 | COC(=O)c1cccc([N+](=O)[O-])c1CS(=O)(=O)c1ccc(C)cc1 | 15.1%
53 | CCc1cc(-c2n[nH]c(=S)n2CC(C)C)cs1 | 1.14%
54 | COc1ccc(NS(=O)(=O)c2ccc(N3CCCCC3)c(N)c2)cc1 | 2.68%
55 | CSc1nc(C)cc(OCC(=O)N2CCOCC2)n1 | 8.96%
56 | Cc1ccc(C(=O)O)cc1N=Cc1cc(Br)cc(Br)c1O | 25.9%
57 | Cc1nc(CSc2ccccc2)cc(=O)[nH]1 | 5.77%
58 | COc1cc(NC(=O)CN2C(=O)COc3ccc(S(=O)(=O)N4CCCC4)cc32)cc(OC)c1 | 3.87%
59 | COc1ccc(OC)c(C(c2nnnn2CC2CCCO2)N2CCN(C)CC2)c1.Cl (centres unmarked) | 12.3%
60 | CS(=O)(=O)NN1C(=O)c2ccccc2NC1c1ccccc1F (centres unmarked) | 10.8%
61 | CCc1ccccc1NC(=O)CSc1nnc(Cn2nnc3ccccc32)n1C | 10.5%
62 | CCCNC(=O)c1ccccc1SCc1c(C)noc1C | 17.6%
63 | c1ccc(-c2cccc(-c3ccccc3)n2)cc1 | 8.47%
64 | O=C(CN(c1ccc(F)cc1)S(=O)(=O)c1ccccc1)Nc1ccccc1C(=O)O | 7.73%
65 | CCOC(=O)c1c(NC(=O)C(C)OC(=O)c2ccc(NC(=O)CC#N)cc2)sc2c1CCCC2 (centres unmarked) | 16.1%
66 | COC(=O)c1cccc(-n2nnnc2SCC(=O)Nc2nc3c(s2)CCCC3)c1 | 13.4%
67 | CCOc1ccc(CN2CCNC(=O)C2CC(=O)O)cc1 (centres unmarked) | 8.45%
68 | C=CCN(CC=C)CC(O)CN(c1cc([N+](=O)[O-])ccc1OC)S(=O)(=O)c1ccccc1 (centres unmarked) | 8.5%
69 | CCN(N=Nc1nonc1OC)c1nonc1OC | 12.1%

Row | Structure (SMILES) | hERG current change (%, negative = inhibition) at 1uM
70 | COc1ccc(N2Cc3ccccc3C2=NC(=O)c2cncc(Br)c2)cc1 | 18.1%
71 | O=C(CSc1ccc2ccccc2n1)c1ccccc1 | 15.7%
72 | CCc1ccc(NC(=O)C2CCCN(S(=O)(=O)c3ccc4c(c3)CC(C)N4C(C)=O)C2)cc1 (centres unmarked) | 2.67%
73 | O=C(c1ccco1)N1CCN(C(=S)Nc2ccc(F)c(Cl)c2)CC1 | 8.33%
74 | COC(=O)N/N=C/c1ccc([N+](=O)[O-])s1 | 19.7%
75 | CC(=O)N(c1ccccc1)C1SC(=O)N(c2ccccc2)C1=O (centres unmarked) | 10.1%
76 | Cc1cc(C)c2cc(CN(CCO)Cc3nnnn3Cc3ccccc3)c(=O)[nH]c2c1 | 0.542%
77 | S=c1[nH]c(-c2ccccc2)cn1/N=C/c1ccc(Br)cc1 | 9.71%
78 | O=C(/C=C/c1ccc([N+](=O)[O-])o1)NNC(=O)c1ccc(F)cc1 | 10.8%
79 | CCOC(=O)C1CCN(c2c(NCc3ccc(C(=O)NC4CCCC4)cc3)c(=O)c2=O)CC1 | -7.92%
80 | Cc1ccc2c(Cl)c(C(=O)N/N=C/c3cccn3C)sc2c1 | 10.6%
81 | O=C(O)CN(C1CCCCC1)S(=O)(=O)c1ccc(F)cc1 | 12.7%
82 | O=C(c1cccc(OC2CCN(C3CCCC3)CC2)c1)N1CCCCCCC1 | -11.5%
83 | C[C@]12CCC3C(CC[C@H]4CC(O)CC[C@]34C)C1CC/C2=N/NC(=O)c1ccncc1 (some centres unmarked) | 11.9%
84 | COC(=O)c1ccc(C)c(NC(=O)C2CC(=O)N(C3CCCC(C)C3C)C2)c1 (centres unmarked) | 10.9%
85 | CC1CCc2ccccc2N1C(N)=Nc1ccccc1.Cl (centres unmarked) | 12.5%
86 | CC(O)CC(C(=O)NNc1ccccc1)C(=O)NNc1ccccc1 (centres unmarked) | 20.8%
87 | COc1cccc(NC(=O)COC(=O)c2cc(S(=O)(=O)N3CCOCC3)ccc2C)c1 | 7.5%
88 | CCOc1ccc(NS(=O)(=O)c2ccc3c(c2)n(C)c(=O)n3C)cc1 | 6.36%
89 | O=c1ccc(-c2nc3ccccc3n2Cc2ccccc2Cl)c[nH]1 | 4.18%
